Measured values from PubChem BioAssay AID504832 (National Center for Advancing Translational Sciences (NCATS), 2011).
Hit rate of the full screen: of about 310,000 compounds, about 18,000 (5.8%) were called active. This list was built around the results that the source calls inconclusive (neither active nor inactive); the mix of calls is not that of the screen. Calls follow the shape of the dose curve; as a rule, active = well fitted inhibition curve with a large enough effect; inconclusive = small, poorly fitted or top-dose-only effect, or another doubt; inactive = no such curve, though single readings can be large or run the other way. No potency is given beside an inconclusive call; the fits are too rough.

assay: Primary qHTS for delayed death inhibitors of the malarial parasite plastid, 48 hour incubation; conditions: P. falciparum luciferase growth in erythrocytes; series mostly up to 28.7 µM; activity change, negative = inhibition: at the top concentration
Outline: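 Firefly luciferase activity from engineered P. falciparum reports growth; inhibitors lower the luminescent signal. Cultures contained 2% hematocrit erythrocytes at 0.1% final parasitemia.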
% is scaled to controls: 0 for no effect and ±100 for the full control effect; potency is read from the fitted curve at half-maximal effect; tags tell the direction and shape of the fitted curve.

Structure (SMILES)	Potency	activity change, negative = inhibition
CCN1CCc2c(sc(NC(=O)c3ccc(S(=O)(=O)N4CCOCC4)cc3)c2C(=O)OC)C1	inconclusive [inhibitor, partial curve]	–
Cc1cc(C)n(S(=O)(=O)c2ccc(Cl)c(Cl)c2Cl)n1	–	inactive: -9.96%
CCOc1ccc2nc(N/C(N)=N/S(C)(=O)=O)nc(C)c2c1	–	inactive: 42.7%
CC(O)CNc1ccc(-c2n[nH]c(=O)c3ccccc23)cc1[N+](=O)[O-] (centres undefined)	–	inactive: -0.282%
O=C(O)c1cc(S(=O)(=O)N(Cc2ccccc2)c2ccc(Cl)cc2)ccc1Cl	–	inactive: -11.3%
CC(N)C12CC3CC(C1)CC(C(C)N)(C3)C2 (centres undefined)	inconclusive [inhibitor, single point]	–
CCc1nc2ccccc2c(C(=O)OCC(=O)NCCCN2CCCC2=O)c1C	–	inactive: -23.1%
O=[N+]([O-])c1cccc(-c2ccc(/C=N/Nc3nc(N4CCCCC4)nc(N4CCCCC4)n3)o2)c1	active: 2.33 µM	–
CCOC(=O)N1CCN(C(=O)CS(=O)(=O)c2cn(Cc3ccccc3C)c3ccccc23)CC1	–	inactive: 9.83%
CC1(C)CC2(CC(c3ccccc3F)c3ccc(O)c(O)c3O2)NC(=S)N1 (centres undefined)	inconclusive [inhibitor, partial curve, poor fit]	–
c1ccc2c(Nc3ccc4c(c3)OCCO4)c3c(nc2c1)CCCC3	inconclusive [inhibitor, single point]	–
CN1CCc2c(sc3nc(SCC(=O)N4CCOCC4)nc(N)c23)C1	inconclusive [inhibitor, single point]	–
CC1(C)C(=O)OC(/C=C\c2cccc([N+](=O)[O-])c2)C(C)(C)C1=O (centres undefined)	–	inactive: 13.7%
CN(C)c1nc(N(C)C)nc(N(C#N)CCOc2ccccc2)n1	inconclusive [inhibitor, single point]	–
CC(OC(=O)C1CCN(c2ccc(C(F)(F)F)cn2)CC1)C(=O)Nc1ccc(S(N)(=O)=O)cc1 (centres undefined)	inconclusive [inhibitor, partial curve]	–
C=CCNCCOCCOc1ccccc1-c1ccccc1	inconclusive [inhibitor, partial curve, poor fit]	–
O=C(c1cc(-c2ccncc2)nc2ccccc12)N1CCN(S(=O)(=O)/C=C/c2ccccc2)CC1	active: 1.85 µM	–
CNC(=O)c1ccsc1NC(=O)C1CCCN1S(=O)(=O)c1cccs1 (centres undefined)	inconclusive [inhibitor, single point]	–
O=C(COc1ccc([N+](=O)[O-])cc1)NCC(c1cccs1)N1CCOCC1 (centres undefined)	inconclusive [inhibitor, single point]	–
CCC(Oc1ccc(Br)cc1Cl)C(=O)Nc1nnc(C2CC2)s1 (centres undefined)	–	inactive: -2.42%
C/C(=N\NC(=O)Cc1ccc(Cl)cc1)c1ccccc1O	inconclusive [inhibitor, single point]	–
COC(=O)c1c(NC(=O)c2nc3ccccc3s2)sc2c1CC(C)(C)NC2(C)C	inconclusive [inhibitor, single point]	–
COc1ccc(NS(=O)(=O)c2cccc(C(=O)N3CCN(Cc4cc(OC)ccc4OC)CC3)c2)cc1	inconclusive [inhibitor, partial curve, poor fit]	–

Structure (SMILES)	Potency	activity change, negative = inhibition
O=[N+]([O-])c1ccc(CNCc2cc(Cl)ccc2O)cc1	active: 11.7 µM	–
COc1ccc(NC(=O)N(CCc2ccccc2)Cc2cc3c(C)cc(C)cc3[nH]c2=O)cc1	inconclusive [inhibitor, single point]	–
Nc1ccc2nc(CCc3ccccc3)[nH]c2c1	–	inactive: 3.52%
CC(C)C(=O)NC(NC(=S)Nc1cccc2cccnc12)C(Cl)(Cl)Cl (centres undefined)	inconclusive [inhibitor, single point]	–
COc1ccccc1NC(=O)CON=C(N)CC(=O)NC1CCCCC1	inconclusive [inhibitor, single point]	–
CC(C)N(Cc1ccccc1)C(=O)COC(=O)c1cnccn1	inconclusive [inhibitor, full curve, poor fit]	–
CSc1ccccc1NC(=O)CN(C)C(=O)c1ccc(NC(=O)c2cccs2)cc1	inconclusive [inhibitor, single point]	–
NCC(c1ccc(Cl)cc1Cl)c1c[nH]c2ccccc12 (centres undefined)	inconclusive [inhibitor, single point]	–
CCN(C(=O)Cn1c(=O)oc2cc(S(=O)(=O)N3CCCC3)ccc21)c1ccc(OC)cc1	inconclusive [inhibitor, full curve]	–
COC(=O)c1ccc(C23CC4(C2)[C@H](CN(Cc2cccnc2)[C@@H]4c2ccccc2)C3c2ccc(Cl)nc2)cc1 (some centres undefined)	active: 10.4 µM	–
Cc1ccc(Cl)cc1NC(=S)N/N=C/c1cccc2ccccc12	active: 2.08 µM	–
C#CC[N+](C)(C)CCCCCCCC	active: 3.7 µM	–
O=C1C(=C(O)c2ccccc2)C(=O)c2ccccc21	inconclusive [inhibitor, partial curve, poor fit]	–
COc1cccc(/C=N/NC(=O)c2cc3cc([N+](=O)[O-])ccc3s2)c1O	active: 4.15 µM	–
O=C(CCl)Nc1ccc2c(c1)OCO2	inconclusive [inhibitor, full curve]	–
Cc1ccc(Cn2c(=N)c(C(=O)NC3CCCC3)cc3c(=O)n4ccccc4nc32)cc1	inconclusive [inhibitor, full curve]	–
N#C/C(=C/c1ccccc1)C(=O)OCC(=O)Nc1ccccc1[N+](=O)[O-]	inconclusive [inhibitor, partial curve, poor fit]	–
CCOc1ccc(N(CC(=O)NC2CCCCC2)S(=O)(=O)c2ccc(C)cc2)cc1	inconclusive [inhibitor, partial curve, poor fit]	–
CCc1ccc(C(C)NC(=O)C2CCCC2)cc1 (centres undefined)	–	inactive: 5.24%
CC(C)(C)C1CCC2(CC1)C(C#N)=C(SCC(=O)Nc1ccccc1)NC(=O)C2C#N (centres undefined)	inconclusive [inhibitor, single point]	–
Cc1ccc(C)c(NS(=O)(=O)c2cc(C(=O)NCCSC3CCCCC3)ccc2C)c1	inconclusive [inhibitor, partial curve]	–
CCC(c1nnnn1C1CCCC1)N1CCN(C(=O)c2ccco2)CC1 (centres undefined)	active: 8.28 µM	–
NC(=O)c1nn(CC(=O)Nc2cccc(S(=O)(=O)N3CCCCCC3)c2)c(=O)c2ccccc12	inconclusive [inhibitor, single point]	–

Structure (SMILES)	Potency	activity change, negative = inhibition
Nc1ccc2nc3c(=O)[nH]c(=S)[nH]c3nc2c1	inconclusive [inhibitor, single point]	–
CCCOc1ccc(C2C(C(=O)OC)=CN(CCOC)C=C2C(=O)OC)cc1	inconclusive [inhibitor, single point]	–
O=C(CN(C(=O)CNC(=O)c1cccs1)c1ccc(F)cc1)NC1CCCC1	–	inactive: -8.75%
CSc1ccccc1C(=O)Nc1c(C)cccc1C	–	inactive: -18.3%
COC(=O)C1=C(c2ccc3ccccc3c2)C[C@@H]2CC[C@H]1N2C(=O)NCc1ccc(F)cc1	active: 8.28 µM	–
COC(=O)Nc1ccc(S(=O)(=O)N2CCC(C(=O)N(C)C3CCCCC3)CC2)cc1	inconclusive [inhibitor, partial curve]	–
CCOc1c2ccc(C(=O)N[C@H](C)C3CCCCC3)cc2nn1CC	inconclusive [inhibitor, single point]	–
O=C(CSc1nc(-c2ccc(F)cc2)cc(C(F)(F)F)n1)NCc1ccco1	–	inactive: -14.1%
C=CCNC(=O)C1CCN(c2nc(C)cc(-c3ccccc3)n2)CC1	inconclusive [inhibitor, single point]	–
O=S(=O)(c1ccc2c(c1)OCCO2)N1CCC(n2cnc3cc(F)ccc32)CC1	inconclusive [inhibitor, partial curve, poor fit]	–
CCOC(=O)CSc1nnc(-c2ccoc2C)n1-c1ccc(OCC)cc1	inconclusive [inhibitor, single point]	–
Cc1nc(-c2ccc(NC(=O)c3ccccc3)cc2)cs1	–	inactive: -26.4%
C=CC1CN2CCC1CC2[C@@H](OC(=O)c1ccc(OC)cc1)c1ccnc2ccccc12 (some centres undefined)	active: 2.94 µM	–
CCC(=O)N(Cc1cc(=O)[nH]c2ccccc12)c1ccc(C)cc1C	inconclusive [inhibitor, single point]	–
CN(C)c1nc(SCCOC(=O)Nc2ccccc2)nc(N(C)C)n1	inconclusive [inhibitor, single point]	–
N#C/C(C(=O)NCc1ccco1)=C1/SC=C(c2ccccc2)N1c1ccccc1	–	inactive: -0.237%
O=C(C[n+]1ccc(/C=N/O)cc1)N(Cc1ccccc1)Cc1ccccc1	inconclusive [inhibitor, full curve]	–
Cc1nnc2n(Cc3ccccc3)c(=O)c3c4c(sc3n12)COC(C(C)C)C4 (centres undefined)	inconclusive [inhibitor, single point]	–
C=CCc1cccc(CNc2nc3ccccc3n2CCN2CCOCC2)c1O	active: 3.7 µM	–
COc1cc(NC(=O)CN2CCCCC2C)c(C)cc1[N+](=O)[O-] (centres undefined)	–	inactive: -12.5%
CCc1ccc(-c2cc(C)no2)cc1S(=O)(=O)N1CCN(c2ccccc2F)CC1	inconclusive [inhibitor, partial curve]	–
CCOC(=O)c1[nH]c2cc3c(cc2c1NC(=O)CN1CCc2ccccc2C1)OCO3	inconclusive [inhibitor, full curve, poor fit]	–
O=S(=O)(c1cccc(C(F)(F)F)c1)N1CCC(c2cc(-c3cccc4ccccc34)n[nH]2)CC1	inconclusive [inhibitor, partial curve]	–
